Data published in PubChem BioAssay AID504332 (National Center for Advancing Translational Sciences (NCATS), 2011).
The whole screen tested about 350,000 compounds, of which about 31,000 (8.9%) were called active. Inconclusive means that the source gave no clear call. Such entries were picked first, then a sample of the others. Calls come from the whole dose curve; as a rule, active = well fitted inhibition curve with a large enough effect; inconclusive = small, poorly fitted or top-dose-only effect; inactive = no such curve, though single readings can be large or run the other way. Potencies of inconclusive entries are doubtful fits and often do not repeat.
% is set by controls: 0 for no effect and ±100 for the full control effect; potency is the fitted concentration of half-maximal effect; tags give direction and shape of the fitted curve.
Note: nearly all actives have a fitted effect of over 75% in size.

The compounds below were run against Histone-lysine N-methyltransferase EHMT2 (Homo sapiens) (UniProt Q96KQ7) (assay: qHTS Assay for Inhibitors of Histone Lysine Methyltransferase G9a). Conditions: G9a H3K9 monomethylation, AlphaScreen, 2 h; activity, negative = inhibition: at 59 µM (top of the series) unless noted.
Chain of UniProt Q96KQ7 (Q96KQ7 whole entry, looked up): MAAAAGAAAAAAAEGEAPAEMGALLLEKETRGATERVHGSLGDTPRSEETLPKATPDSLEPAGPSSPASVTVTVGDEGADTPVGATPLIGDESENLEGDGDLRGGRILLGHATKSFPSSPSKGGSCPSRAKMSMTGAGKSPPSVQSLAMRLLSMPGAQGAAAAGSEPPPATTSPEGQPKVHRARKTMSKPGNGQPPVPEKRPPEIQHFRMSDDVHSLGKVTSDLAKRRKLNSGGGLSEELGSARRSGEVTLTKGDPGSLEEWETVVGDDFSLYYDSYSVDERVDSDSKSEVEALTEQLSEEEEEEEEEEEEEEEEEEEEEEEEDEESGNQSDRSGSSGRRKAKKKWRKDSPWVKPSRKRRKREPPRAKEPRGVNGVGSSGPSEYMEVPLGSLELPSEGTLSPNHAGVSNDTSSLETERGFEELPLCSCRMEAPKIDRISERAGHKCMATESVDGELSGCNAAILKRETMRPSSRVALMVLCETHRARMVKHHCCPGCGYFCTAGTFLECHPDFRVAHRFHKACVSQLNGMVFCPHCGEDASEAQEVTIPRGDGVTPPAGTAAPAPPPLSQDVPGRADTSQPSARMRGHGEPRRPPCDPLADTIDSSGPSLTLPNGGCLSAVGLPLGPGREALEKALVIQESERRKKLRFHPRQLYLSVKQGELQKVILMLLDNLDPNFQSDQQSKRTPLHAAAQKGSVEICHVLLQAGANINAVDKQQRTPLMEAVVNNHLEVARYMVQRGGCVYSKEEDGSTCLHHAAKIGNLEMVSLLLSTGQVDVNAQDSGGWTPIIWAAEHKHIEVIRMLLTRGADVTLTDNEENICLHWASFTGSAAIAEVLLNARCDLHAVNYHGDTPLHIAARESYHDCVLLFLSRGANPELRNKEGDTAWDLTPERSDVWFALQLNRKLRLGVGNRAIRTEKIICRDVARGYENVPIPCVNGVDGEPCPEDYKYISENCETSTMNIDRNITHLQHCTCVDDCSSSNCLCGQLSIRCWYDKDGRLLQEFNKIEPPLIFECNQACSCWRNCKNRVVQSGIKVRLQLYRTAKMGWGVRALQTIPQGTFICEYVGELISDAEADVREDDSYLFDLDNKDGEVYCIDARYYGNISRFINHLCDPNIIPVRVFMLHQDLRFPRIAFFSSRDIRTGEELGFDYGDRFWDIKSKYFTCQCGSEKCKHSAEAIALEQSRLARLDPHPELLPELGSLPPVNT
Summary of the method: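 Quantitative HTS format: methyltransferase activity on a biotin-tagged H3K9 peptide is measured by AlphaScreen, using a rabbit anti-monomethyl-H3K9 antibody with streptavidin donor and anti-IgG acceptor beads. Final levels are 20 nM enzyme, 500 nM peptide, 20 uM SAM; 2 h RT.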
For Cc1cccc(-n2ccnc2SCC(=O)c2c(N)n(C3CC3)c(=O)[nH]c2=O)c1C, the Potency was inconclusive: 3.16 µM [inhibitor, partial curve, poor fit]. For COc1ccccc1CN1CC(C(=O)N(C)Cc2ccc(C)o2)CCC1=O (stereo not given), the Potency was active: 35.5 µM. For Cc1ccc2nc(NC(=O)C3CSC4(C)CCC(=O)N34)sc2c1 (stereo not given), the Potency was active: 39.8 µM. In the case of COc1ccc(CN(CC2CCC(C(=O)O)CC2)C(=S)Nc2ccc(C)c(Cl)c2)cc1 (stereo not given), the Potency is reported as inconclusive: 39.8 µM [inhibitor, partial curve, poor fit]. With Cc1ccc(C)n1-c1ccc(C(=O)NC2CCN(Cc3ccccc3)CC2)cc1 the “activity, negative = inhibition” value was inactive: -18.4%. CCc1nnc(NC(=O)CSc2nnc(Cc3cc(=O)[nH]c(=O)[nH]3)n2-c2cccc(OC)c2)s1 was tested, and the “activity, negative = inhibition” value was inactive: -6.95% [at 102 µM]. COc1cc(C/C=C/c2ccccc2)c(OC)cc1O was tested, and the activity, negative = inhibition was inconclusive: -57.3% [inhibitor] [at 2.33 µM]. For COc1cccc(N2CCN(S(=O)(=O)c3ccc4c(c3)NC(=O)C(C)C(=O)N4)CC2)c1 (stereo not given), the Potency was inconclusive: 70.8 µM [inhibitor, single point]. CCN(c1ccccc1)S(=O)(=O)c1ccc(NC(=O)c2cc(=O)c3cc(C)ccc3o2)cc1 was tested, and the “activity, negative = inhibition” value was inactive: 6.12%. With Cc1ccc(C(=O)OCC(=O)N2CC(C)CC(C)C2)cc1S(=O)(=O)N1CCCCC1 (stereo not given) the Potency was inconclusive: 50.1 µM [inhibitor, partial curve, poor fit]. In the case of Cc1cc(Cl)ccc1NC(=S)N(CCCN1CCOCC1)Cc1cccs1, the Potency is reported as inconclusive: 28.2 µM [inhibitor, single point]. For CCOc1ccccc1C1N(c2ccc(F)cc2)C(=O)C2CCCN21 (stereo not given), the activity, negative = inhibition was inactive: 13% [at 12.7 µM]. CC(=O)Oc1c(C)c(=O)n(C)c2ccccc12 was tested, and the “activity, negative = inhibition” value was inactive: 7.57%. For CCN(CC)S(=O)(=O)c1ccc(NC(=O)CCNC(=O)c2ccco2)cc1, the Potency was inconclusive: 79.4 µM [inhibitor, single point]. O=C(CCNC(=O)c1ccc([N+](=O)[O-])cc1)NC1CCCCCC1 was tested, and the Potency was inconclusive: 1.41 µM [inhibitor, single point]. In the case of CC(C)c1ccc(/C=C/c2[nH]c(=O)[nH]c(=O)c2[N+](=O)[O-])cc1, the Potency is reported as inconclusive: 11.2 µM [inhibitor, full curve]. For Cc1cccn2c(=O)c3cc(C#N)c(=N)n(CCN4CCOCC4)c3nc12, the “activity, negative = inhibition” value was inactive: 19.5% [at 102 µM]. For Cc1cccc(OCCn2ccnc2)c1, the Potency was inconclusive: 89.1 µM [inhibitor, single point]. Cn1cc(/C=C(\NC(=O)c2ccccc2)C(=O)N2CCOCC2)c2ccccc21 was tested, and the Potency was inconclusive: 89.1 µM [inhibitor, single point]. CCOC(=O)c1ccc(S(=O)(=O)N2CCC(C(=O)Nc3nnc(C)o3)CC2)cc1 was tested, and the Potency was inconclusive: 89.1 µM [inhibitor, single point]. In the case of CCOC(=O)c1c(C)n(C)c2ccc(OCC(O)CN(CC)CC)cc12 (stereo not given), the Potency is reported as inconclusive: 89.1 µM [inhibitor, single point]. In the case of CCN(C(=O)COC(=O)CCC1CCCC1)c1c(N)n(Cc2ccccc2)c(=O)[nH]c1=O, the Potency is reported as inconclusive: 89.1 µM [inhibitor, single point]. Cc1cccc(CSC2=NCCN2S(=O)(=O)c2ccc(F)cc2)c1 was tested, and the “activity, negative = inhibition” value was inactive: 200% [at 102 µM]. With CCC(C)n1[nH]c(=O)c2c(C)cc(C)nc21 (stereo not given) the Potency was inconclusive: 6.31 µM [inhibitor, single point]. COc1ccc(NS(=O)(=O)c2ccc3c(c2)n(C)c(=O)n3C)cc1 was tested, and the Potency was inconclusive: 100 µM [inhibitor, single point]. COc1ccccc1N1CCN(Cc2ccc(Br)o2)CC1 was tested, and the Potency was inconclusive: 3.16 µM [inhibitor, partial curve, poor fit]. In the case of Cc1ccc(S(=O)(=O)c2nc(-c3cccc(C)c3)oc2N2CCCCC2)cc1, the Potency is reported as inconclusive: 31.6 µM [inhibitor, single point]. With CN(C)c1ccc(CC(=O)c2nc3ccccc3s2)cc1 the Potency was inconclusive: 2 µM [inhibitor, full curve, poor fit]. For CCN(CC)S(=O)(=O)c1ccc(N2CCOCC2)c(NC(=O)C(C)Oc2ccc(F)cc2)c1 (stereo not given), the Potency was inconclusive: 8.91 µM [inhibitor, single point]. For O=S(=O)(Cc1ccccc1)Nc1ccc(Br)cn1, the Potency was active: 70.8 µM. For CC(=O)N1CCc2c(sc(NC(=O)C3CCCN3S(=O)(=O)c3cccs3)c2C(N)=O)C1 (stereo not given), the Potency was inconclusive: 50.1 µM [inhibitor, partial curve]. With COc1ccc(S(=O)(=O)N2CCC(C(=O)NCC3CCCO3)CC2)cc1 (stereo not given) the Potency was inconclusive: 0.1 µM [inhibitor, full curve, poor fit]. With Cc1ccc2[nH]c3ccccc3c(=O)c2c1 the “activity, negative = inhibition” value was inactive: 1.89% [at 102 µM]. In the case of COc1ccc(-c2cn3nc(N4CCCC(C(=O)NCc5ccccc5C)C4)sc3n2)cc1 (stereo not given), the Potency is reported as inconclusive: 7.94 µM [inhibitor, partial curve, poor fit]. For Cc1cccn2c(CNC3CCCc4ccccc43)c(C(=O)N3CCOCC3)nc12 (stereo not given), the Potency was inconclusive: 70.8 µM [inhibitor, partial curve]. For CC(=O)c1c(C)[nH]c(C(=O)Nc2c(C)n(C)n(-c3ccccc3)c2=O)c1C, the Potency was inconclusive: 89.1 µM [inhibitor, single point]. For COc1ccc2c(c1OC)C(=O)N1c3ccccc3N=C(c3ccc([N+](=O)[O-])cc3)CC21 (stereo not given), the Potency was inconclusive: 10 µM [inhibitor, partial curve, poor fit]. In the case of COc1ccc(C(=O)OCC[N+]2(C)CCCCC2)cc1, the Potency is reported as inconclusive: 89.1 µM [inhibitor, partial curve, poor fit]. COc1ccc(CN=C2NN=C(c3cccc(OC)c3)CS2)cc1 was tested, and the Potency was inconclusive: 56.2 µM [inhibitor, partial curve, poor fit]. For COc1ccc(Cn2ccnc2SCC(=O)Nc2cc(C(F)(F)F)ccc2Cl)cc1, the Potency was active: 10 µM. Cn1cnc([N+](=O)[O-])c1SCC(O)CN1CCCCC1 (stereo not given) was tested, and the “activity, negative = inhibition” value was inactive: -1.59% [at 102 µM]. For C[C@H](NC(=O)c1ccco1)C(=O)Nc1cccc([N+](=O)[O-])c1, the “activity, negative = inhibition” value was inactive: -1.45% [at 102 µM]. For CC(C)CN1CCC(=O)N([C@H](CO)Cc2ccccc2)CC1, the Potency was inconclusive: 79.4 µM [inhibitor, single point]. In the case of CCN(CC)Cc1c(CC(C)C)oc(C)c1C(=O)O, the Potency is reported as inconclusive: 2.82 µM [inhibitor, partial curve, poor fit]. With COc1ccc(NC(=O)CSc2c3c(nc4ccccc24)CCC3)c(OC)c1 the Potency was “inactive”. In the case of CN(Cc1ccc(F)cc1)S(=O)(=O)c1nnc(NC(=O)c2ccc(F)cc2)s1, the “activity, negative = inhibition” value is reported as inactive: -3.11%. O=C(O)CSc1nnc(Cc2cccc3ccccc23)n1-c1cc(C(F)(F)F)cc(C(F)(F)F)c1 was tested, and the Potency was inconclusive: 89.1 µM [inhibitor, single point]. In the case of CN(C)S(=O)(=O)c1cccc(CSc2cccc[n+]2[O-])c1, the Potency is reported as inconclusive: 56.2 µM [inhibitor, partial curve, poor fit]. Cc1ccc(Nc2c([N+](=O)[O-])ccc3nonc23)cc1C was tested, and the Potency was inconclusive: 8.91 µM [inhibitor, partial curve, poor fit]. Cc1cc(C(=O)COC(=O)c2ccc(O)cc2O)c(C)n1-c1ccccc1 was tested, and the Potency was inconclusive: 0.112 µM [inhibitor, full curve, poor fit]. CCOC(=O)CCCNC(=O)CSc1nc2ccc(OCC)cc2[nH]1 was tested, and the activity, negative = inhibition was inactive: -7.99% [at 0.0925 µM]. CCOC(=O)c1ccc2c(c1)C(=O)N(C1CCCCC1)C2=O was tested, and the “activity, negative = inhibition” value was inactive: -2.18%. For O=C(O)CCC(=O)Nc1ccccc1C(=O)Nc1ccccc1, the Potency was inconclusive: 0.891 µM [inhibitor, full curve, poor fit]. With COc1cc(-c2n[nH]c(=S)n2-c2cc(C(F)(F)F)ccc2Cl)cc(OC)c1OC the Potency was inconclusive: 0.794 µM [inhibitor, full curve, poor fit]. In the case of COc1cc(CNc2ccc3c(c2)ncn3C(C)C)cc(OC)c1OC, the Potency is reported as inconclusive: 4.47 µM [inhibitor, partial curve, poor fit]. CCN1CCN(C(=O)C2CCN(c3nnc(-n4c(C)ccc4C)s3)CC2)CC1 was tested, and the Potency was inconclusive: 79.4 µM [inhibitor, single point]. In the case of CC1CCCCC12NC(=O)N(CC(=O)Nc1sc3c(c1C(N)=O)CCC3)C2=O (stereo not given), the Potency is reported as inconclusive: 39.8 µM [inhibitor, single point]. With CCOc1ncccc1C(=O)OCC(=O)Nc1nnc(-c2ccccc2)o1 the Potency was inconclusive: 79.4 µM [inhibitor, single point]. C=C1C(=O)O[C@@H]2[C@H]3O[C@]3(C)CC/C=C(\C)CC[C@@H]12 was tested, and the Potency was active: 7.94 µM. With Cc1nc(N2CCCCC2)sc1C(=O)c1ccc(Cl)c([N+](=O)[O-])c1 the Potency was active: 14.1 µM. For COc1ccc(Cl)cc1NC(=O)CCn1cnc2ccccc2c1=O, the Potency was inconclusive: 1 µM [inhibitor, full curve, poor fit]. With Cc1ccc(C(C(=O)NC2CCCC2)N(Cc2cccs2)C(=O)CNC(=O)c2cccs2)o1 (stereo not given) the Potency was inconclusive: 50.1 µM [inhibitor, partial curve]. COCCn1c(C)cc(C(=O)CSc2n[nH]c(N)n2)c1C was tested, and the Potency was inconclusive: 22.4 µM [inhibitor, partial curve, poor fit]. With O=c1cc(-c2ccc(O)c(O)c2)oc2cc(O)c(C3OC(CO)C(O)C(O)C3O)c(O)c12 (stereo not given) the activity, negative = inhibition was inactive: -2.64% [at 12.7 µM]. With Cn1c(-c2ccc(C=O)s2)nc2ccccc21 the Potency was inconclusive: 28.2 µM [inhibitor, single point].
